The whole screen tested about 52,000 compounds, of which about 1,700 (3.3%) were called active. Cut-off read from the data, not from the text of the source: active = survival mostly below about 52% (no sharp cut-off); inactive = mostly above about 56%. The list shows a part of the results.
test system: Wild type; assay: S. aureus survival, RN4220 and DeltatarO strains – OD600, teichoic acid synthesis inhibitors, primary screen (AID 463173); conditions: S. aureus RN4220 wild type/DeltatarO growth, OD600, 18 h, active compounds read low, screened at 18.75 µg/mL (by protocol)

With `CCCc1nnc(NC(=O)c2cc(=O)c3ccccc3o2)s1` as the compound, how does the survival read?
Its survival is inactive: 83%.

How did the survival turn out when `CC(=O)N1c2ccc(S(=O)(=O)NCc3ccccc3Cl)cc2CC1C` (stereo unspecified) was run?
The survival was inactive: 82%.

How did the survival turn out when `O=C(O)CCNc1ccc2c(c1)OCCO2` was run?
The survival was inactive: 108%.

How did the survival turn out when `CC1=C(C(=O)Nc2cccnc2)C(c2cccc(F)c2)n2nc(SCc3ccccc3F)nc2N1` (stereo unspecified) was run?
Its survival is inactive: 91%.

For `COc1ccc(C)cc1NC(=O)c1cc(S(=O)(=O)N2CCOCC2)cn1C`, which survival is on record?
Its survival is inactive: 83%.

How did the survival turn out when `O=C(CSc1nc(=O)[nH]c2c1CCCC2)NCc1ccccc1Cl` was run?
The survival was inactive: 135%.

With `CCCCNC(=O)CN1C(=O)c2cccnc2Sc2ccccc21` as the compound, how does the survival read?
The survival was inactive: 81%.

With `CCOc1ccccc1NC(=O)CCCc1nc(-c2ccccc2Cl)no1` as the compound, how does the survival read?
Its survival is inactive: 74%.

How did the survival turn out when `COc1ccc(CNC(=O)CCS(=O)(=O)c2cc(Br)cc3c2N(C(C)=O)C(C)C3)cc1` (stereo unspecified) was run?
The survival was inactive: 84%.

`CCn1c2ccccc2c2cc(CN3CCN(Cc4cc(OC)c(O)c(OC)c4)CC3)ccc21` was tested. Which survival did it give?
Its survival is inactive: 54%.

Which survival does the source give for `COc1ccc(N2CCN(c3ccc(-c4nc(-c5ccccc5)no4)cc3[N+](=O)[O-])CC2)cc1` here?
The survival was inactive: 83%.

`COc1cc2[nH]c(=O)n(Cc3ccc(C(=O)N4CCN(c5ccc(Cl)cc5)CC4)cc3)c(=O)c2cc1OC` was tested. Which survival did it give?
Its survival is inactive: 142%.

With `O=C(Nc1cccc(Cl)c1Cl)c1ccc2c(c1)N(Cc1cccc(Cl)c1)C(=O)c1ccccc1S2=O` (stereo unspecified) as the compound, how does the survival read?
Its survival is inactive: 77%.

`Cc1ccc(NC(=O)c2sc3ncn(Cc4cccc(F)c4)c(=O)c3c2C)c(Br)c1` was tested. Which survival did it give?
The survival was inactive: 82%.

For `Cc1ccc(N(Cc2cccs2)C(=O)C(C)Oc2ccc(Cl)c(C)c2)cc1` (stereo unspecified), which survival is on record?
Its survival is inactive: 80%.

`Cc1ccc(C)c(NC(=O)Cn2nc(C)c3nn(-c4ccc(Cl)cc4)c(C)c3c2=O)c1` was tested. Which survival did it give?
The survival was inactive: 101%.

Which survival does the source give for `CCOc1ccc(CCNC(=O)c2cc3c(=O)n(CC)c4ccccc4c3s2)cc1OCC` here?
Its survival is inactive: 75%.

With `CCc1cccc(NC(=O)CSc2nncn3c2cc2sccc23)c1` as the compound, how does the survival read?
The survival was inactive: 73%.

With `CC(C)CCNC(=O)c1ccc2c(c1)NC(=O)C(C(C)C)N2` (stereo unspecified) as the compound, how does the survival read?
Its survival is inactive: 68%.

How did the survival turn out when `Cc1c(C)n(Cc2ccccc2)c2ccc(C(=O)N3CCN(c4ccc(F)cc4)CC3)cc12` was run?
The survival was inactive: 69%.

Which survival does the source give for `CCN(Cc1ccccc1)C(=O)c1cc(-c2ccccc2)n[nH]1` here?
Its survival is inactive: 65%.

With `Cc1ccc(Cl)cc1N1CCN(C(=O)CN2C(=O)COc3ccc(S(=O)(=O)N4CCCCCC4)cc32)CC1` as the compound, how does the survival read?
Its survival is inactive: 74%.

Which survival does the source give for `COc1ccc(S(=O)(=O)NCCSc2nnnn2-c2ccccc2)cc1OC` here?
The survival was inactive: 138%.

For `Cc1ccccc1Nc1c(-c2cccc(Cl)c2)nc2ncccn12`, which survival is on record?
The survival was inactive: 83%.

How did the survival turn out when `Cc1ccc(NC(=O)N2CCCC2C(=O)NCC2CCCCC2)cc1` (stereo unspecified) was run?
Its survival is inactive: 110%.

Which survival does the source give for `Cc1oc2ccc(O)c(CN3CCOCC3)c2c1C(=O)Nc1cccc(C(F)(F)F)c1` here?
The survival was inactive: 88%.

How did the survival turn out when `Cn1cnc(S(=O)(=O)N2CCCC(C(=O)NCc3ccc(Cl)cc3)C2)c1` (stereo unspecified) was run?
The survival was inactive: 99%.

`CCN(CC)S(=O)(=O)c1ccc2c(c1)N(CC(=O)N1CCN(c3ccc(OC)cc3)CC1)C(=O)CO2` was tested. Which survival did it give?
The survival was inactive: 60%.

With `COc1ccc(-n2c(SCC(N)=O)nc3c(oc4ccccc43)c2=O)cc1` as the compound, how does the survival read?
Its survival is inactive: 85%.

For `Cc1ccc(-c2onc(C)c2C)cc1S(=O)(=O)N1CCOc2ccc(Cl)cc21`, which survival is on record?
The survival was inactive: 84%.

With `c1ccc(CN2CCN(CCN3CCCCC3)CC2)cc1` as the compound, how does the survival read?
Its survival is inactive: 107%.

How did the survival turn out when `COc1cc(/C=C(\C#N)c2nc3ccccc3[nH]2)ccc1OCc1ccccc1F` was run?
The survival was inactive: 65%.

`CC(C)CN1CCc2nc(Nc3ccc(F)cc3F)ncc2C1` was tested. Which survival did it give?
Its survival is inactive: 73%.

Which survival does the source give for `CC(=O)N1CCc2c(sc3c2c(=O)n(Cc2ccccc2)c(=O)n3Cc2ccccc2F)C1` here?
The survival was inactive: 110%.

How did the survival turn out when `O=C(Cc1cccs1)Nc1c(C(=O)Nc2ccc(F)cc2)oc2ccccc12` was run?
The survival was inactive: 110%.

Which survival does the source give for `CCC(Sc1nc(-c2ccc(F)cc2)nc2c1Cc1c(CO)cnc(C)c1O2)C(=O)Nc1ccc(F)cc1` (stereo unspecified) here?
Its survival is inactive: 85%.

How did the survival turn out when `COc1c(Cl)cc(C(=O)N(Cc2ccccc2F)C2CCS(=O)(=O)C2)cc1Cl` (stereo unspecified) was run?
The survival was inactive: 86%.

For `COc1ccc(CCC(=O)NCc2ccc3c(c2)CCN3C(=O)c2ccccc2)cc1`, which survival is on record?
The survival was inactive: 71%.

Which survival does the source give for `CCS(=O)(=O)N1CCc2cc(C(=O)N3CCN(c4ccccc4OC)CC3)ccc21` here?
Its survival is inactive: 108%.

`CC(C)(C)OC(=O)N1CCc2nc(N3CCN(c4ncccn4)CC3)ncc2C1` was tested. Which survival did it give?
The survival was inactive: 85%.

With `COc1ccc2cc(C#N)c(N3CCN(Cc4nnnn4CCC(C)C)CC3)nc2c1` as the compound, how does the survival read?
The survival was inactive: 106%.

How did the survival turn out when `Cn1c(=O)c2c(nc(SCC(=O)Nc3ccc(F)cc3)n2Cc2ccccc2F)n(C)c1=O` was run?
The survival was inactive: 123%.

With `COc1ccc(C(CNC(=O)c2ccc(F)cc2)N2CCCC2)cc1` (stereo unspecified) as the compound, how does the survival read?
Its survival is inactive: 105%.

For `CCCSc1ncc(Cl)c(C(=O)Nc2c(C(=O)c3ccc(C)cc3)oc3ccccc23)n1`, which survival is on record?
The survival was inactive: 84%.

How did the survival turn out when `CCC(=O)N1c2ccc(S(=O)(=O)CCC(=O)N3CCN(c4cc(C)ccc4C)CC3)cc2CC1C` (stereo unspecified) was run?
The survival was inactive: 82%.

Which survival does the source give for `CCOc1ccc2nc(NC(=O)c3nc(SCc4ccccc4C)ncc3Cl)sc2c1` here?
The survival was inactive: 110%.

`Cc1cc(C)cc(NC(=O)N2CCC(CN3CCCCCC3)CC2)c1` was tested. Which survival did it give?
The survival was inactive: 57%.

`O=C(NC1CC(=O)N(c2ccccc2)C1)C(c1ccccc1)c1ccccc1` (stereo unspecified) was tested. Which survival did it give?
Its survival is inactive: 69%.

`c1ccc2c(c1)CN1CCCC1=N2` was tested. Which survival did it give?
The survival was inactive: 99%.

`COC(=O)c1c(NC(=O)/C(C#N)=C/c2ccc(OC)cc2)sc2c1CCC2` was tested. Which survival did it give?
The survival was inactive: 145%.

`O=C(CSc1nc2nccnc2c(=O)n1CCc1c[nH]c2ccccc12)Nc1ccccc1` was tested. Which survival did it give?
The survival was inactive: 85%.

`C=CCN1CCN(Cc2nnnn2Cc2ccc(OC)cc2)CC1` was tested. Which survival did it give?
The survival was inactive: 113%.

With `COc1ccc(S(=O)(=O)N2CCC(N3CCN(Cc4ccc(F)cc4)C(=O)C3=O)CC2)cc1` as the compound, how does the survival read?
Its survival is inactive: 70%.

`Cc1c(CCNC(=O)c2ccc(Br)o2)sc2nc(-c3ccc(Cl)cc3)nn12` was tested. Which survival did it give?
Its survival is inactive: 84%.

For `Cc1ccc(C(=O)N2CCCCC2)cc1NC(=O)c1nsc2ccccc12`, which survival is on record?
Its survival is active: -6%.

How did the survival turn out when `CCc1ccc(C(=O)c2cn(CC(=O)Nc3cc(OC)ccc3OC)c3nc(C)ccc3c2=O)cc1` was run?
Its survival is inactive: 124%.
